# Laboratory results from PubChem BioAssay AID2675 (National Center for Advancing Translational Sciences (NCATS), 2010).
# The whole screen tested about 280,000 compounds, of which about 100 (0.036%) were called active. Inconclusive means that the source gave no clear call. Such entries were picked first, then a sample of the others. The call rests on the fitted dose curve; in most records, active means well fitted inhibition curve with a large enough effect in the signal ratio, with a control signal flat (not every such curve was filed as active); inconclusive means small, poorly fitted or top-dose-only effect, or effect the other way, or a change in a side signal; inactive means no such curve, though single readings can be large or run the other way; the % refers to the signal ratio. Where the call is inconclusive, the potency comes from a doubtful curve fit. A note “side channel” means that the fit belongs to a control or component signal, not to the main read-out.
# Biological target: Muscleblind-like protein 1 (Homo sapiens) (UniProt Q9NR56)
# UniProt Q9NR56, sequence (Q9NR56 whole entry, looked up): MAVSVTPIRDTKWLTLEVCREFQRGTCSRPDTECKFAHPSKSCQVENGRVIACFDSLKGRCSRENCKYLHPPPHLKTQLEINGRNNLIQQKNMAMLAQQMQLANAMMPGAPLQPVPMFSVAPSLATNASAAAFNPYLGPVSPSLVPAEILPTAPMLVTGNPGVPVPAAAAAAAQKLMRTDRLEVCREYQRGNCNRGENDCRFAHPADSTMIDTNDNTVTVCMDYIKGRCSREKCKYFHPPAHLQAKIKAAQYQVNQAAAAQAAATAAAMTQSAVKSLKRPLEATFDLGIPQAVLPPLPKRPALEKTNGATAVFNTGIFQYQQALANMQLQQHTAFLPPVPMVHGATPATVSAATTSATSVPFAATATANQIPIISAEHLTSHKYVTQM
# Assay: qHTS Assay for Inhibitors of MBNL1-poly(CUG) RNA binding
# Conditions: TR-FRET MBNL1-His/biotin-(CUG)12 binding, 665/545 ratio; activity change, negative = inhibition: at 57.5 µM (top of the series)
# Procedure, shortened: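 Inhibition of protein-RNA binding appears as loss of TR-FRET between terbium anti-His antibody on MBNL1-His and streptavidin-XL665 on biotin-(CUG)12. Activity is normalized to buffer-only and uninhibited-complex controls.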
# On the % scale 0 is the no-effect control and ±100 the full control effect; potency means the concentration at half of the fitted maximal effect; tags describe the fitted curve by direction and shape or compound fluorescence and quenching.
Compound,Potency,"activity change, negative = inhibition"
COc1ccccc1NC(=O)CN1CCN(CC(=O)Nc2ccc3c(c2)OCO3)CC1,inactive,–
CCN(CC)S(=O)(=O)c1cc(NC(=O)c2cc([N+](=O)[O-])ccc2N2CCOCC2)ccc1C,"inconclusive: 14.1 µM [quencher, side channel, partial curve]",–
CC1=C(CC(=O)c2ccccc2)C(=O)c2ccccc2C1=O,"inconclusive: 14.1 µM [quencher, side channel, partial curve]",–
Cc1nc2ncccn2c1-c1csc(Nc2ccc(S(N)(=O)=O)cc2)n1,"inconclusive: 17.8 µM [quencher, side channel, partial curve]",–
CCOc1ccc(-n2c(SCC(N)=O)nc3c(c2=O)SCC3)cc1,"inconclusive: 12.6 µM [quencher, side channel, partial curve]",–
COc1ccc2[nH]c(CN3CCC(n4nccc4NC(=O)C4CC4)CC3)c(C)c2c1,inactive,–
Cn1ccc2c([N+](=O)[O-])cccc2c1=O,"inconclusive: 11.2 µM [quencher, side channel, partial curve]",–
CCOC(=O)/C(=N\Nc1ncnc2ccccc12)c1ccc(OC)cc1,"inconclusive: 8.91 µM [quencher, side channel, partial curve]",–
O=c1oc2ccccc2c2c1C1O[C@](c3ccsc3)(Cc3ccccc31)O2,–,inactive: 0.232% [at 11.5 µM]
O=C(Nc1nc2ccccc2[nH]1)c1ccc(S(=O)(=O)N2CCOCC2)cc1,inactive,–
Cc1ncc(CO)c(CNc2ccc(-c3nc4ccccc4[nH]3)cc2)c1O,"inconclusive: 28.2 µM [quencher, side channel, single point]",–
O=C(COc1ccc(-c2nnco2)cc1)NC1CCCc2ccccc21 (configuration not stated),inactive,–
COCCNC(=S)Nc1cc(OC)c(OC)cc1C#N,inactive,–
CCCOC(=O)c1cc2ccccc2oc1=O,"inconclusive: 17.8 µM [quencher, side channel, partial curve]",–
CCCc1nc(SCC(=O)N2CCC(Cc3ccccc3)CC2)c2c(=O)n(C)c(=O)n(C)c2n1,"inconclusive: 0.891 µM [quencher, side channel, full curve, poor fit]",–
O=C(CN1C(=O)c2cccc3cccc1c23)NCc1cccnc1,"inconclusive: 17.8 µM [quencher, side channel, partial curve]",–
CC(NC(=O)C(=O)N1CCOCC1)C(c1cccs1)N1CCN(c2ccccc2)CC1 (configuration not stated),inactive,–
CCn1c(SCC(=O)N/N=C/C=C/c2ccccc2[N+](=O)[O-])nnc1-c1ccccc1,"inconclusive: 11.2 µM [quencher, side channel, partial curve]",–
CC(C)N1CCc2c(sc(NC(=O)c3cc4cc([N+](=O)[O-])ccc4s3)c2C(N)=O)C1,"inconclusive: 14.1 µM [quencher, side channel, partial curve]",–
Cc1ccc2nc(-c3ccc4c(c3)OCCO4)cc(C(=O)O)c2c1,"inconclusive: 39.8 µM [quencher, side channel, single point]",–
COC(=O)N/N=C/c1ccc([N+](=O)[O-])o1,"inconclusive: 3.16 µM [quencher, side channel, full curve]",–

Compound,Potency,"activity change, negative = inhibition"
CSc1nnc2c(n1)OC(C)=Nc1ccccc1-2,"inconclusive: 2.51 µM [quencher, partial curve]",–
O=C(CNC(=O)C1COc2ccccc2O1)N/N=C/c1ccc([N+](=O)[O-])cc1 (configuration not stated),"inconclusive: 14.1 µM [quencher, partial curve]",–
Cc1nc(N2CCc3ccccc3C2)[nH]c(=O)c1Cc1ccccc1,inactive,–
COc1cccc(C2CC(c3cccs3)=NN2C(=O)CSC2=NN3CCCC(=O)N=C3S2)c1OC (configuration not stated),"inconclusive: 31.6 µM [quencher, side channel, single point]",–
Cc1ccc(C(=O)NNC(=O)Cn2nnc3ccccc32)cc1,inactive,–
O=C(CSc1nnnn1C1CCCCC1)Nc1nc2c(s1)CCCC2,inactive,–
CCC(C)N(C(=O)COC(=O)c1cc([N+](=O)[O-])ccc1N)C1CCS(=O)(=O)C1 (configuration not stated),"inconclusive: 15.8 µM [quencher, side channel, partial curve]",–
NC(=O)c1ccc(Oc2ccc(Cl)cc2)c([N+](=O)[O-])c1,"inconclusive: 15.8 µM [quencher, side channel, partial curve]",–
CN(C)C(=O)c1ccc(Nc2nnc(-c3ccc(O)cc3)c3ccccc23)cc1,"inconclusive: 25.1 µM [quencher, side channel, partial curve]",–
COC(CNC(=O)C1CCN(S(=O)(=O)c2cccc3nsnc23)CC1)OC,"inconclusive: 22.4 µM [quencher, side channel, partial curve]",–
COc1ccc(Cn2c(SCC(=O)NCc3ccco3)nc3ccsc3c2=O)cc1,"inconclusive: 8.91 µM [quencher, side channel, single point]",–
CCOc1ccc(N(CC(=O)N/N=C/c2cc([N+](=O)[O-])ccc2Cl)S(C)(=O)=O)cc1,"inconclusive: 28.2 µM [quencher, side channel, partial curve]",–
Cc1ccc(CN2CCNC(=O)C2CC(=O)NCc2cc(C)n(C)n2)cc1 (configuration not stated),inactive,–
O=C1NC(=O)c2cc(Oc3ccc([N+](=O)[O-])cc3)ccc21,"inconclusive: 2.51 µM [quencher, side channel, full curve]",–
O=CN1CCN(c2ncnc3c2nnn3Cc2c(F)cccc2Cl)CC1,"inconclusive: 17.8 µM [quencher, side channel, partial curve]",–
CCn1c(C(=O)N2CCC(C(=O)N3CCN(c4ccccn4)CC3)CC2)cc2sccc21,"inconclusive: 0.158 µM [quencher, side channel, full curve, poor fit]",–
CC1CN(c2ccc(NS(=O)(=O)c3ccccc3)cc2C(=O)O)CC(C)O1 (configuration not stated),inactive,–
Cc1ccc(-n2c(=O)c3sccc3n(CC(=O)NCc3ccco3)c2=O)cc1,inactive,–
Cc1cccc(N2CCN(C(=O)Cn3cnc4c3c(=O)n(C)c(=O)n4C)CC2)c1C,"inconclusive: 39.8 µM [quencher, side channel, single point]",–
CN(C)CCNC(=O)c1cc2cc(Br)ccc2oc1=O,"inconclusive: 3.16 µM [quencher, side channel, full curve]",–
O=C(O)CCNC(=O)/C(=C/C=C/c1ccccc1)NC(=O)c1ccccc1,inactive,–

Compound,Potency,"activity change, negative = inhibition"
O=C(COC(=O)/C=C/c1cccs1)NC1CCCCC1,"inconclusive: 31.6 µM [quencher, side channel, single point]",–
CCOC(=O)c1c(-c2ccc(OC)cc2)csc1NC(=O)COc1ccc2c(C)cc(=O)oc2c1,"inconclusive: 0.316 µM [fluorescent, side channel, partial curve]",–
O=[N+]([O-])c1cccc(S(=O)(=O)N2CCN(S(=O)(=O)N3CCCCCC3)CC2)c1,inactive,–
CCOC(=O)C1=C(C)N(c2ccccc2)C(=O)/C1=C\c1ccc(O)c(OC)c1,inactive,–
COc1cccc(Nc2c([N+](=O)[O-])cncc2[N+](=O)[O-])c1,"inconclusive: 15.8 µM [quencher, side channel, partial curve]",–
CCOC(=O)c1ccccc1NC(=O)/C=C/c1cc(OC)c(OC)c(OC)c1,"inconclusive: 28.2 µM [fluorescent, side channel, single point]",–
CCC(C)(C)NC(=O)CN(C(=O)c1ccc(N2CCCC2)nc1)c1ccc(F)cc1,"inconclusive: 0.631 µM [quencher, side channel, full curve]",–
COc1ccc(CN2C(=O)c3cccnc3C2=O)cc1S(=O)(=O)N1CCCCC1,"inconclusive: 15.8 µM [quencher, partial curve]",–
CCOC(=O)C1CCCN(C(=O)c2cc3nc(-c4cccc(OC)c4)cc(C(F)(F)F)n3n2)C1 (configuration not stated),"inconclusive: 39.8 µM [quencher, side channel, single point]",–
NC(=O)COc1ccc(NC(=O)OCc2ccccc2)cc1,inactive,–
CN(Cc1ccc2nsnc2c1)Cc1nc(Cc2cccc(F)c2)no1,"inconclusive: 15.8 µM [quencher, side channel, partial curve]",–
O=C(Nc1cccc(-n2cnnn2)c1)c1ccc(Cl)cc1Cl,inactive,–
CC(C)(C)c1cc(NCc2ccccn2)n2ncc(-c3ccc(Cl)cc3)c2n1,inactive,–
CCOC(=O)CNC(=O)c1cnc(Nc2ccccc2OC)c2ccccc12,"inconclusive: 25.1 µM [quencher, side channel, single point]",–
O=C(COc1ccc2oc(-c3ccccc3)cc(=O)c2c1)NCc1ccco1,inactive,–
Cc1cccc(Sc2ccc([N+](=O)[O-])cc2[N+](=O)[O-])n1,"inconclusive: 12.6 µM [quencher, side channel, partial curve]",–
Cc1cc(C)n(-c2ccc(S(=O)(=O)N3CCCC3)cc2[N+](=O)[O-])n1,"inconclusive: 31.6 µM [quencher, side channel, single point]",–
O=C(c1cccc(F)c1)N1CCN(c2ccc([N+](=O)[O-])c3cccnc23)CC1,"inconclusive: 15.8 µM [quencher, side channel, partial curve]",–
CC1(C)Cc2c(ccc3ccccc23)/C(=C/C#N)N1,inactive,–
CCc1ccc(-n2c(=S)sc3c(=O)n(-c4ccccc4)c(SCC(=O)O)nc32)cc1,"inconclusive: 31.6 µM [quencher, side channel, single point]",–
